Drawing on PubChem BioAssay AID488969 (Vanderbilt High Throughput Screening Facility, 2010), this text covers z-score for 70 compounds.

Over roughly 110,000 compounds, “z-score” has its median near -0.1; the highest 2% begin near 2. The list shows a part of the results.

In this experiment the target is Metabotropic glutamate receptor 8 (Rattus norvegicus) (UniProt P70579). In words: rat mGluR8 modulators via GIRK flux, primary screen, cell-based, thallium flux, HTS (AID 488969). The conditions noted are these: HEK293 rat mGluR8, GIRK (G protein-gated inwardly rectifying potassium channel) thallium flux, FluoZin2; at 10 µM; stronger effect = higher value; submaximal glutamate (EC20) added with thallium.
Sequence of UniProt P70579 (P70579 whole entry, looked up): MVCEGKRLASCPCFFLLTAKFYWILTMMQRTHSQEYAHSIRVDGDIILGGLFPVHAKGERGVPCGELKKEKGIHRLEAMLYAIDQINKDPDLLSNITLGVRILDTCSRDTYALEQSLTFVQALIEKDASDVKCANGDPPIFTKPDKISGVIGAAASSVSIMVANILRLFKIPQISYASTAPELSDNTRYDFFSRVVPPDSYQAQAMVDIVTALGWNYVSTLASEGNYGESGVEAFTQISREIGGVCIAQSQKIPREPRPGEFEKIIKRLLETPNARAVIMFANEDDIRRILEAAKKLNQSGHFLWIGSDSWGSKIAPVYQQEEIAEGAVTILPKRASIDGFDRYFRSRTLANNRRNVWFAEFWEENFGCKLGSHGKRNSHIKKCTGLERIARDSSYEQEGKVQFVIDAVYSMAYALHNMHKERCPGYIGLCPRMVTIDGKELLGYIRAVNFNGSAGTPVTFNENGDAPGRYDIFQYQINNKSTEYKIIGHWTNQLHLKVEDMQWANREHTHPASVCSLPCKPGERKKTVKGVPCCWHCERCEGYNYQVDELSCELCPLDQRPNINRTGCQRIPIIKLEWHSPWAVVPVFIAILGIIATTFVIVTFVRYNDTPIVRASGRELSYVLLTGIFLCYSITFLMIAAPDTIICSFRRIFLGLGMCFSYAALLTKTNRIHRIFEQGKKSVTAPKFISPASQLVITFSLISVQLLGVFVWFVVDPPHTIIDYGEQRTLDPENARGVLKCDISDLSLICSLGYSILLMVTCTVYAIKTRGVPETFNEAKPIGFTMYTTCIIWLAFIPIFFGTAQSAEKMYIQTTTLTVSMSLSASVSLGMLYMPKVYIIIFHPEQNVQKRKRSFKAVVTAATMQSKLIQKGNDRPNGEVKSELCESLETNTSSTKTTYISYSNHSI
Turning to `COC(=O)Cc1ccc(NC(=S)NN2CCOCC2)cc1`, the z-score is -0.09.
For the compound `CN1CCN(/N=C/c2nc(-c3ccc(Cl)cc3)n3ccccc23)CC1`, the z-score is -0.0274.
In the case of `COC(=O)c1cc(OC)c(OC)cc1NC(=O)c1cccnc1` it was -0.373; in that of `C=CCN(CC=C)c1nc2ccccc2nc1C(C#N)C(=O)OCCOC` (stereo not given), -0.858; in that of `CCN1CCN(CC(O)COCCOc2ccc(Br)cc2)CC1` (stereo not given), -0.122.
In the case of `Brc1ccc(C2=CC(c3cccs3)n3ncnc3N2)cc1` (stereo not given) it was -1.55.
On to `CCC(COC(=O)Nc1cccc(C)c1C)NC(=O)OCC(C)C` (stereo not given), for which the z-score is -0.549.
The compound `CCOC(=O)c1ccc(NC(=O)CSc2nc(C)nc3c2c(=O)n(C)c(=O)n3C)cc1` yielded a z-score of 0.221.
Compound `O=C(COC(=O)c1cccc(S(=O)(=O)N2CCOCC2)c1)Nc1ncc(C(F)(F)F)cc1Cl` returned a z-score of -0.14.
`COC(=O)c1ccc(CSc2nc(C)nc3sc(C)c(C)c23)o1` had a z-score of 1.53.
With `O=C(COc1ccc(/C=N/NC(=O)c2ccccc2)cc1)Nc1ccc([N+](=O)[O-])cc1`, the z-score amounted to 0.0219.
`CCOC(=O)c1c(C)oc2c1c(C=NCC1CCCO1)c(O)c1ccccc12` (stereo not given) displayed a z-score of -0.244.
With `COCCNC(=O)CSc1nc2cc(OC)c(OC)cc2c(=O)n1Cc1ccco1`, the z-score was 0.329.
As to `O=S(=O)(/N=C(/c1ccccc1)N1CCCCC1)c1ccccc1`, the z-score is -0.126.
The compound `O=C(CNC(=O)c1ccco1)OCc1ccc(Cl)cc1` came in with a z-score of -0.161.
In turn, `CCn1cc(C(=O)N2CCN(c3cccc(Cl)c3)CC2)c2cc(OC)c(OC)cc2c1=O` gave a z-score of 0.219.
`COc1cc(NC(=O)COC(=O)c2ccc(C)c(S(=O)(=O)N3CCCCC3)c2)c(C)cc1[N+](=O)[O-]` showed a z-score of -0.856.
The compound `CCn1c(SCC(=O)N2CCN(c3ccccc3)CC2)nnc1-c1c[nH]c2ccccc12` had a z-score of -0.779.
`CCCc1ccc(Oc2coc3cc(OCC(=O)Nc4ccccc4C)ccc3c2=O)cc1` displayed a z-score of -0.0523.
Compound `Cc1cc(C)c(C#N)c(N2CCSCC2)n1` came in with a z-score of -0.563.
In the case of `Cc1cc(C)nc(N(C#N)CCOc2ccccc2)n1` it was -0.698; in that of `Cc1ccc2c(c1)N(CC(=O)NCc1ccco1)C(=O)CO2`, -0.265.
Compound `O=C(NCC1CCCO1)c1ccc(N2CCCCC2)nc1` (stereo not given) had a z-score of 0.113.
In the case of `COc1cc(CC(=O)Nc2sccc2C(N)=O)cc(OC)c1OC` it was 0.767; in that of `CC1(C)C2CCC13CS(=O)(=O)NC3C2` (stereo not given), -0.0436.
As to `Clc1ccc2nc(-c3ccccc3)c(CN3CCOCC3)n2c1`, the z-score is -0.26.
`COc1cccc(/C=N/NC(=O)C(C)n2nc(C)c([N+](=O)[O-])c2C)c1O` (stereo not given): the z-score was -0.579.
Regarding `CN(C)S(=O)(=O)Oc1cccc(C(=O)Nc2cccc(Cl)c2)c1`, the z-score was -0.764.
Compound `O=C(CC(C(=O)N1CCc2ccccc21)n1ccnc1)NCc1ccccc1` (stereo not given) registered a z-score of -0.318.
In the case of `CCc1ccccc1OCCOc1ccc(C)cc1OC` it was -0.148; in that of `CCCn1cc(SCC(=O)NCc2ccco2)c2ccccc21`, -0.826; in that of `CC(NC(=O)c1cccnc1)C(c1cccs1)N1CCOCC1` (stereo not given), -0.295.
To `CSc1ccccc1NC(=O)c1onc(C)c1Cl` belongs 0.00573.
In the case of `Nc1c(C(=O)NCc2ccc(Cl)cc2)sc2nc3c(c(C(F)(F)F)c12)CCC3` it was 0.532; in that of `Cc1cc2cc(CNC(=O)c3ccc(S(=O)(=O)N4CCOCC4)cc3)ccc2n1C`, -0.249; in that of `Cc1ccc2nc(-c3ccc(NC(=S)NC(=O)CC(C)C)cc3)sc2c1`, -0.0287.
As for `O=c1cnn(-c2ccccc2)c(-c2ccccc2)c1`, the z-score is -1.39.
For `Cc1ccc2c(C)nc(Nc3nc(CSc4nc5ccccc5[nH]4)cc(=O)[nH]3)nc2c1`, the z-score is -0.473.
`COc1ccc(NC(C)=O)cc1CNC(=O)COc1c(C)c(C)cc(C)c1C` registered a z-score of -0.0399.
To `CCCc1ncc(C(=O)c2ccc(OC)cc2)n1C` belongs -0.0109; to `CC1=CC(C)C2C(=O)N(CCCN(C)C)C(=O)C2C1` (stereo not given), 0.122; to `Cc1ccccc1CS(=O)(=O)CC1(O)CCN(C(=O)c2cccc(C(F)(F)F)c2)CC1`, 0.166.
In turn, `O=C(O)c1cccc(-c2nnn(Cc3ccccc3)n2)c1` gave a z-score of -0.942.
In the case of `Cc1ccc(S(=O)(=O)CC2CSc3nc(N)cc(=O)n32)cc1` (stereo not given), the z-score is 0.151.
The compound `CCCCn1cc(SCC(=O)O)c2ccccc21` registered a z-score of -0.488.
The compound `CCOC(=O)C(CSCC(=O)c1ccc(Cl)cc1Cl)NC(=O)OC(C)(C)C` (stereo not given) came in with a z-score of 0.504.
`COc1ccccc1OCC(=O)Nc1ccc(S(=O)(=O)Nc2cc(C)nc(C)n2)cc1` registered a z-score of 0.12.
Regarding `CC1CCN(CCC(=O)Nc2ccc(Br)cc2)CC1`, the z-score is 0.106.
Compound `Cc1ccc(C(=O)COC(=O)CNS(=O)(=O)c2ccccc2)cc1[N+](=O)[O-]` showed a z-score of 0.0421.
For the compound `CCOC(=O)c1c(/N=C/c2cc([N+](=O)[O-])ccc2O)sc(C)c1C`, the z-score worked out at 0.177.
With `O=C(NCCSCc1ccc(Cl)cc1Cl)c1ccc(CN2CCOCC2)cc1`, the z-score was -0.33.
Compound `CCSc1nnc(NC(=O)CSc2nnc(Cc3cccn3C)n2-c2ccc(C)cc2)s1` registered a z-score of -0.0856.
On to `CCNC(=O)CSc1nnc(C2CC2)n1-c1ccccc1`, for which the z-score is -0.318.
`COC(=O)Oc1nsnc1N1CCOCC1` gave a z-score of 1.87.
As to `Cc1ccc2c(c1)N=C(c1ccc(F)cc1)CO2`, the z-score was -0.205.
Take `CCOc1ccc(NC(=O)CN2CCN(CC(=O)c3ccc(OCC)cc3)CC2)cc1`: the z-score is -0.33.
`COC(=O)c1ccc(NC(=O)CSc2nncn2C)cc1` came in with a z-score of 0.0719.
Turning to `Cc1cc(NCCOCCO)n2ncc(-c3ccc(Cl)cc3)c2n1`, the z-score is -1.72.
To `CS(=O)(=O)N1CCN(C(=O)c2ccccc2)C1` belongs -0.2.
For the compound `Cc1ccnc(SCc2cc(=O)c(OC(=O)c3ccc(Br)o3)co2)n1`, the z-score was -0.552.
On to `CCOc1cc(S(=O)(=O)n2nc(C)cc2C)ccc1F`, for which the z-score amounted to 0.162.
The compound `CC(C)(C)c1nc(NCC2CCCO2)c2nnn(Cc3ccccc3)c2n1` (stereo not given) registered a z-score of -0.274.
To `CCOC(=O)c1ccc(Nc2ccc(-c3ccc(OC)c(OC)c3)nn2)cc1` belongs -1.32; to `COc1ccccc1N(C(=O)CNC(=O)c1ccco1)C(C(=O)NC1CCCC1)c1ccncc1` (stereo not given), 0.258; to `Oc1ccc(/C=N/NC2=NCCCCC2)c(O)c1`, -0.161.
Consider `CC(C)C(C)NC(=O)COc1ccc(Sc2ccc(OCC(=O)NC(C)C(C)C)cc2)cc1` (stereo not given), for which the z-score turned out to be 0.547.
Compound `COCCCNC(=O)c1ccc2c(=O)n(CC3CCCO3)c(=S)[nH]c2c1` (stereo not given) displayed a z-score of 0.247.
As for `CCOc1ncccc1C(=O)OCC(=O)c1cc(C)n(Cc2ccco2)c1C`, the z-score was -0.0219.
Compound `O=C(c1ccc(CS(=O)(=O)c2ccc(Br)cc2)o1)N1CCN(C2CCCCC2)CC1` came in with a z-score of -0.654.
`CCOc1ccc(C2C(C(=O)c3ccco3)=C(O)C(=O)N2CCCn2ccnc2)cc1` (stereo not given) yielded a z-score of -0.458.
